Screen size: about 150,000 compounds; about 540 (0.36%) showed an effect of 50% or more. The list shows a part of the results.

The test deals with Plasmodium falciparum. Put plainly: Primary screen in NF54 nanoGlo assay, in single point, at 2uM, 72h; a lower Z score goes with more inhibition. As to conditions: timepoint 72 hour. The class given is functional, Erythrocyte.
As for `CN1C[C@H]2CC[C@@H](C1)N(Cc1cccc(OCCCn3ccnc3)c1)C2`, the “% Inhibition” value is recorded as -15% and the Z score is reported as 1.45.
On to `COCC[C@H]1CCCCN1Cc1cc(C(C)C)on1`, for which the “% Inhibition” value is given as -7% and the Z score came to 1.43.
The like results for `Cc1ccc([C@@H](O)CNC(=O)NCCOc2ccccc2)o1` were, in that order, -6% and 0.67.
Take `O=C(Nc1ccc2c(c1)CNCC2)C1CC1c1ccc(F)c(F)c1` (stereo not drawn): the “% Inhibition” value was determined as 37% and the Z score is listed as -1.36.
For `CCCN(C)C(=O)Nc1ccc(C)cc1Br`, the “% Inhibition” value was -4% and the Z score was determined as 0.56.
In the case of `COCc1nc(C)nc(N2CCN(C(=O)c3cccs3)CC2)c1Cc1ccc(OC)cc1`, the “% Inhibition” value is listed as 3% and the Z score is recorded as -0.29.
Turning to `CC1CN(C(=O)Cn2cc(NC(C)c3ccncc3)cn2)CC(C)O1` (stereo not drawn), the “% Inhibition” value is reported as -11% and the Z score is recorded as 0.96.
The like results for `COCCN1CCC(CN(C[C@H]2CCCO2)C(=O)c2ccncc2)CC1` were, in that order, 5% and -1.03.
With `COC[C@@H]1CC(F)(F)CN1C1CN(C(=O)c2ccc3c(c2)OCO3)C1`, the “% Inhibition” value is on record as 2% and the Z score is on record as -0.28.
Consider `Cc1nnnn1C[C@H](O)COCc1ccco1`, for which the “% Inhibition” value is listed as -3% and the Z score was found to be 0.32.
The like results for `COCc1nc(C)cc(NCCc2cn3c(C)cccc3n2)n1` were, in that order, -7% and 0.93.
The like results for `COc1cccc(CNC(=O)Cn2cnc3c(-c4cccc(C)c4)nsc3c2=O)c1OC` were, in that order, -6% and 0.98.
In the case of `CC12c3ccccc3C(c3ccccc31)C1C(=O)N(c3ccccn3)C(=O)[C@H]12` (stereo partly drawn), the “% Inhibition” value is -14% and the Z score is listed as 1.2.
Take `Cc1nc2ccccc2n1Cc1ccc(C(=O)NCCc2ccccc2)o1`: the “% Inhibition” value was -15% and the Z score was determined as 2.8.
With `O=S(=O)(NCc1ccc(C2OCCO2)cc1)N1CCc2ccccc2C1`, the “% Inhibition” value is -1% and the Z score was found to be 0.14.
As for `Cc1ccc2c(c1)c(-c1cc(F)cc3c1O[C@@H](CN)C3)nn2C`, the “% Inhibition” value is 1% and the Z score is listed as -0.17.
As to `Cn1ccnc1CCN1CCC([C@@H](O)CCc2ccccc2)CC1`, the “% Inhibition” value is listed as 6% and the Z score is -1.19.
The like results for `CCN(CC)CCN(C)C(=O)c1cnn(-c2ncc3c(n2)-c2ccc(OC)cc2CC3)c1C` were, in that order, -12% and 1.64.
As to `Cc1cc(CNc2cccc(C3CC(=O)NC(=O)C3)c2)ccc1F`, the “% Inhibition” value came out at 4% and the Z score is given as -0.35.
As to `CCc1nnc(-c2nnc(N3CCOCC3)c3ccccc23)o1`, the “% Inhibition” value was -3% and the Z score turned out to be 0.29.
With `O=C(CN1CCN(c2ccc(F)c(F)c2)C1=O)N1CCN(c2ncccn2)CC1`, the “% Inhibition” value is -3% and the Z score was found to be 0.46.
Consider `CC(C)NC(=O)CN1CCN(c2cc(C(=O)O)c3cc(NS(=O)(=O)c4ccc(F)cc4)ccc3n2)CC1`, for which the “% Inhibition” value is -14% and the Z score came out at 2.45.
On to `CC(C)N(C)C(=O)C1CCN(C(=O)[C@@H]2CCc3cc(F)ccc32)CC1`, for which the “% Inhibition” value is -14% and the Z score is listed as 1.82.
For the compound `CCc1csc(CCNc2cc3nncn3c(N)n2)n1`, the “% Inhibition” value is on record as 15% and the Z score was -1.95.
In the case of `OC[C@@]1(CCOc2ccccc2)CCCN(c2ncnc3[nH]ccc23)C1`, the “% Inhibition” value turned out to be 0% and the Z score is -0.02.
As to `CO[C@H]1CCCN(S(=O)(=O)c2cc(-c3cc(C(F)(F)F)[nH]n3)oc2C)C1`, the “% Inhibition” value came to 0% and the Z score is given as -0.04.
In the case of `O=C(NC[C@H]1CCCO1)c1c[nH]c2cc(Br)c(Br)cc12`, the “% Inhibition” value is given as 15% and the Z score is -2.36.
The like results for `O=C(CN1C(=O)CCC1=O)Nc1cc(S(=O)(=O)N2CCCCC2)ccc1Cl` were, in that order, 13% and -1.7.
Consider `Cc1ccc(S(=O)(=O)NCc2nc(-c3ccccc3)oc2C)cc1C`, for which the “% Inhibition” value is -8% and the Z score was 1.01.
The like results for `COC(=O)CNc1nc(Oc2ccccc2)nc(Oc2ccccc2)n1` were, in that order, -6% and 1.19.
Regarding `Cc1ccc(-c2nc(NC(=O)COc3ccccc3F)sc2NC(=O)c2ccco2)cc1`, the “% Inhibition” value is -13% and the Z score is 1.57.
The like results for `Cc1ccc(NC(=O)N(CCN2CCCC2)CC(=O)N2CCc3sccc3[C@@H]2COc2ccc(C(C)C)cc2)cc1` were, in that order, 3% and -0.35.
The like results for `Cn1c(=O)c2c(ncn2[C@H]2CCN(C3CC3)C2=O)n(C)c1=O` were, in that order, -4% and 0.8.
Regarding `COCc1cc(N2CC[C@](O)(C3CC3)[C@@H](C)C2)ncn1`, the “% Inhibition” value is recorded as -9% and the Z score is on record as 1.46.
Regarding `CNC(=O)CCN1CCOCC(F)(F)C1`, the “% Inhibition” value is -2% and the Z score is recorded as 0.22.
Take `O=C(CN1N=C(c2ccccc2)c2ccccc2S1(=O)=O)Nc1ccc(Cl)cc1`: the “% Inhibition” value was -11% and the Z score was determined as 1.04.
In the case of `Cc1cc2[nH]c(CN3CCCC[C@@H]3CCN3CCCC3=O)cc(=O)n2n1`, the “% Inhibition” value is reported as -6% and the Z score is on record as 0.71.
In the case of `Nc1c2c(-c3ccccc3F)nc(NCCc3cccs3)nc2nn1-c1ccc(Cl)c(Cl)c1`, the “% Inhibition” value is recorded as -5% and the Z score came to 0.58.
Turning to `O=S(=O)(c1ccccc1)N1CC[C@@H]2COCCN(Cc3cccnc3)[C@@H]2C1`, the “% Inhibition” value worked out at 3% and the Z score is reported as -0.35.
Regarding `CC(NS(=O)(=O)N1CCCCC1C)c1cccs1` (stereo not drawn), the “% Inhibition” value is recorded as -14% and the Z score was determined as 2.2.
As to `C(=Cc1coc(-c2ccccc2)n1)c1ccncn1`, the “% Inhibition” value is -12% and the Z score turned out to be 1.41.
`COC(=O)N1CC2C=CC1C(c1noc(C)n1)C2` (stereo not drawn): the “% Inhibition” value is 1% and the Z score was -0.09.
The like results for `Cc1cc2c(cc1S(=O)(=O)N1CCC[C@H](C(=O)NCCCc3ccccc3)C1)OCC(=O)N2` were, in that order, -14% and 1.97.
Regarding `CCC[C@H](C)NC(=O)NCc1cc(CC)no1`, the “% Inhibition” value was -12% and the Z score turned out to be 1.29.
The like results for `Cn1c(N2CCC[C@H](C(=O)NCCN3CCN(c4ccccc4F)CC3)C2)cc(=O)n(C)c1=O` were, in that order, -5% and 0.8.
As to `O=S(=O)(CC1CCOC1)NC1CC1C1CCCCC1` (stereo not drawn), the “% Inhibition” value is -4% and the Z score is given as 0.71.
Regarding `CCN(c1ccc(C(=O)N(C)C2(C#N)CCC2)cc1)C(C)C`, the “% Inhibition” value is listed as 41% and the Z score is reported as -5.48.
The like results for `Cc1noc(CN(C)C(=O)c2cccc(-c3ccc(N(C)C)cc3)c2)n1` were, in that order, 0% and 0.
As to `CCC[C@@]1(C(=O)O)CCCN1C(=O)CCc1c(C)noc1C`, the “% Inhibition” value is -11% and the Z score was found to be 1.36.
Take `Cc1cc(C(=O)N2CCCC2)c(C)s1`: the “% Inhibition” value is -1% and the Z score worked out at 0.25.
The like results for `C[C@H]1COCCN1CC(=O)Nc1cc(C(C)(C)C)no1` were, in that order, 21% and -2.82.
The like results for `Cc1cnc(CNC(=O)c2cnc(N3CCOCC3)nc2)cn1` were, in that order, -8% and 1.26.
`C[C@@H]1Oc2ccc(NC(=O)c3ccc(Cl)c(N4CCCC4=O)c3)cc2NC1=O`: the “% Inhibition” value is given as -4% and the Z score amounted to 0.55.
Regarding `COc1ccccc1CC(=O)N1CCC1`, the “% Inhibition” value was -7% and the Z score worked out at 0.98.
In the case of `CC[C@@]1(C)CCCN(C(=O)c2nc3cccnc3[nH]2)C1`, the “% Inhibition” value is recorded as -1% and the Z score stood at 0.11.
As for `COc1cccc(C2=C[C@@H](c3ccccc3)N3N=NNC3=N2)c1`, the “% Inhibition” value is 8% and the Z score was -0.98.
For the compound `C[C@H]1c2cc(Cl)c(Cl)cc2CCN1C(=O)CCn1cncn1`, the “% Inhibition” value is recorded as -1% and the Z score was found to be 0.1.
In the case of `COC(=O)[C@@H](O)C1CCN(C(=O)OC(C)(C)C)CC1`, the “% Inhibition” value is reported as -7% and the Z score was 1.2.
The like results for `CO[C@@]12CC[C@@H](NC(=O)COC(C)C)C[C@@H]1N(C(=O)c1ccoc1)CC2` were, in that order, -10% and 1.88.
On to `COC[C@H](NC(=O)N1CCC(c2nc3cccc(C)c3o2)CC1)C1CC1`, for which the “% Inhibition” value is listed as -6% and the Z score is 1.22.
The like results for `CCOc1cc(C(=O)N(C)C[C@H]2COc3ccccc3O2)n[nH]1` were, in that order, -1% and 0.08.
With `CCOC(=O)N1CCC(N2C[C@@]34C=C[C@@H](O3)C(C(=O)Nc3ccc(C)c(F)c3)[C@@H]4C2=O)CC1` (stereo partly drawn), the “% Inhibition” value is recorded as -6% and the Z score is listed as 0.83.
As for `CCCN(C[C@H]1CCOC1)C(=O)Nc1ccccc1Br`, the “% Inhibition” value was determined as 4% and the Z score was -0.46.
The like results for `CCOC(=O)N1CCN(C(=O)c2cn3cc(-c4ccc(C(F)(F)F)cc4)ccc3n2)CC1` were, in that order, -14% and 1.71.
The like results for `CNC(=O)N1CCC(CC(F)(F)F)CC1` were, in that order, -6% and 0.6.
The like results for `CCn1ncc(NC(=O)Cn2nc(C)c(-c3cnc4ccccc4c3)c2C)n1` were, in that order, -8% and 1.
As to `CCOCC(=O)NC1CCN(Cc2cnc(C)s2)CC1C` (stereo not drawn), the “% Inhibition” value was found to be 5% and the Z score is -0.69.
With `O=C(CCc1c[nH]c2ccccc12)Nc1ccccc1-n1cncn1`, the “% Inhibition” value is -2% and the Z score is reported as 0.23.
Take `Cc1cc(C)c2[nH]c(C(=O)N(C)[C@@H](C)c3c(C)n[nH]c3C)c(C)c2c1`: the “% Inhibition” value was -3% and the Z score amounted to 0.45.
On to `CN(C)c1ccccc1NCc1cnc2cnccn12`, for which the “% Inhibition” value is listed as -15% and the Z score came out at 2.51.
For the compound `CC(NCC1CC(O)CN1Cc1ccccc1)c1cnn(C)c1` (stereo not drawn), the “% Inhibition” value is on record as -3% and the Z score was determined as 0.62.
Consider `CCCCN(C)c1ncc(Cl)c(C(=O)N2CC[C@H](C(N)=O)C2)n1`, for which the “% Inhibition” value was found to be 0% and the Z score came to 0.01.
With `Cc1ccc([C@]2(C)NC(=O)N(Cc3cccc(F)c3F)C2=O)o1`, the “% Inhibition” value worked out at 0% and the Z score was -0.06.
In the case of `C1=CC2CC1CC2CN1CCC(c2ccn[nH]2)CC1` (stereo not drawn), the “% Inhibition” value is on record as -2% and the Z score is recorded as 0.28.
With `C[C@@H](CCO)Nc1ncccc1C(F)(F)F`, the “% Inhibition” value is on record as 5% and the Z score is reported as -0.92.
For the compound `CCN(CC)S(=O)(=O)c1cc(-c2nc(C)cs2)n(CC(=O)N2CCCCC2)c1`, the “% Inhibition” value is listed as 0% and the Z score is 0.03.
In the case of `CC(=O)N1CCC(C(=O)OCCc2ccc(F)cc2)CC1`, the “% Inhibition” value is -3% and the Z score was 0.37.
Regarding `CC(C)(C)c1ncc(CN2CCC(O)(C(F)(F)F)CC2)s1`, the “% Inhibition” value is -4% and the Z score came to 0.58.
The like results for `c1cnc(NCc2cc3n(n2)CCN(Cc2ccoc2)C3)cn1` were, in that order, -11% and 1.99.
Regarding `CCN(CC(C)(C)O)C(=O)C1CC1c1cccc2ccccc12` (stereo not drawn), the “% Inhibition” value is -5% and the Z score was 0.73.
As to `CC1CC(C)(C)C(CNC(=O)c2cnnn2C)C1NC(=O)c1cnnn1C` (stereo not drawn), the “% Inhibition” value is on record as -2% and the Z score amounted to 0.22.
Turning to `O=C1C[C@@H](c2ccccc2)NCCCCCCN1`, the “% Inhibition” value was -16% and the Z score came to 2.32.
Turning to `Cc1cc2c(N3CC[C@@]4(CCCN(C5CCCCC5)C4=O)C3)ncnc2s1`, the “% Inhibition” value is -30% and the Z score is reported as 3.97.
Consider `Cc1cn2nc(N[C@H]3CCN(C4CCCC4)C3)ccc2n1`, for which the “% Inhibition” value was 2% and the Z score is given as -0.44.

The % Inhibition is the drop in the measured response relative to a control, in per cent.
